Test results taken from article PMC4336329 (PLoS ONE, 2015).
Screen size: about 310,000 compounds; about 2,200 (0.71%) showed an effect of 50% or more. Effects have a minus sign here. The list shows a part of the results.

Biological target: human ether-à-go-go-related gene (hERG) potassium channel (human, UniProt Q12809)
Experiment: primary screen, population patch clamp on CHO cells stably expressing hERG

Sequence of human ether-à-go-go-related gene (hERG) potassium channel (Q12809 whole entry, looked up): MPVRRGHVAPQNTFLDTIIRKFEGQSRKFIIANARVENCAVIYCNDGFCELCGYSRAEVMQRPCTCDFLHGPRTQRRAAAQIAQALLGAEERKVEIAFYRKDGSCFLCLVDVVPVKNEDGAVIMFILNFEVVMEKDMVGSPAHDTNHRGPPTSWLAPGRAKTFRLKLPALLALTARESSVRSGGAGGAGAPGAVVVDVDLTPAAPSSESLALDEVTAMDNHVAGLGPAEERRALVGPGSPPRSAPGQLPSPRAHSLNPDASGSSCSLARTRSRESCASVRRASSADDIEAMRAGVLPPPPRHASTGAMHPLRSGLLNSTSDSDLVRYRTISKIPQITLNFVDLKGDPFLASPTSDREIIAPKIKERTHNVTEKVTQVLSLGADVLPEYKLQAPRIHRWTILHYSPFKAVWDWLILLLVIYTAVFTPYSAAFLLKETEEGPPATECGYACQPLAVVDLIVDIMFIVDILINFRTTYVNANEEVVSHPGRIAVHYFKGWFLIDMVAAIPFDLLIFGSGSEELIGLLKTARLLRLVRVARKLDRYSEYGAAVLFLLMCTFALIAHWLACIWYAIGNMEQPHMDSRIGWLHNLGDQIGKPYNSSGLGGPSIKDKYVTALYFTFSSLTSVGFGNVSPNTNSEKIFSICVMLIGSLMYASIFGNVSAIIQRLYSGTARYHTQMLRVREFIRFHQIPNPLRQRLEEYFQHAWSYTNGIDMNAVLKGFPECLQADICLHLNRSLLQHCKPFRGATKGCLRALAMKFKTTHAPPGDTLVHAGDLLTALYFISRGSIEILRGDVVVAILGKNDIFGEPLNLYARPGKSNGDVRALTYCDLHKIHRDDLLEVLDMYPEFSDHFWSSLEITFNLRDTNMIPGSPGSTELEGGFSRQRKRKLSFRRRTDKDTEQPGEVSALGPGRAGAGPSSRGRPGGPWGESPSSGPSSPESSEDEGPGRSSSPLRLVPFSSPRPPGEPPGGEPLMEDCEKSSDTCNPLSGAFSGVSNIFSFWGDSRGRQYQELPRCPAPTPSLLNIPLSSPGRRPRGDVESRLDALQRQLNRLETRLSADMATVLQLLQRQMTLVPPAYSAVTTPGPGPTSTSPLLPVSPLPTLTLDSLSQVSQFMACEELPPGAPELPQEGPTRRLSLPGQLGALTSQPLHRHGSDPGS

Compound | hERG current change (%, negative = inhibition) at 1uM [%]
CC(C)(C)N(NC(=O)c1ccccc1)C(=O)c1ccc(C(=O)N(NC(=O)c2ccccc2)C(C)(C)C)cc1 | 6.89
COC(=O)c1sc2ccccc2c1NC(=O)c1ccc(S(=O)(=O)N2CCCCC2C)cc1 (centres unmarked) | -3.24
Cc1nn(CC(=O)NCc2ccc(C(=O)O)cc2)c(C)c1[N+](=O)[O-] | 13.2
COCCSc1ccccc1C(=O)Nc1ccc2c(c1)OCCO2 | 9.03
CC(=O)Nc1ccc(Oc2nc(-c3ccccn3)nc3ccccc23)cc1 | 12
O=C(COC(=O)CNC(=O)c1ccccc1)Nc1nc(-c2ccccc2)cs1 | 10.3
O=C(COc1coc(CN2CCc3ccccc32)cc1=O)Nc1cccc(F)c1 | 15.8
COc1cccc(CNC(=O)COc2cccc3c2OC(C)(C)C3)c1 | 11.2
CCOc1ccccc1CN1CCN(Cc2ccc3cccc(OC)c3n2)CC1CCO (centres unmarked) | -9.58
O=C(NCc1ccc(F)cc1)c1ccc[nH]1 | 7.17
O=S(=O)(c1ccc(Br)cc1)N1CCCN(Cc2cccc(F)c2)CC1 | 4.78
COc1cc2c(cc1OC)C1=C(C#N)CN(CC(=O)O)CN1CC2 | 9.68
Cc1oc(-c2ccccc2F)nc1CS(=O)(=O)CC(=O)NCCCN1CCN(C)CC1 | 14.1
CCOc1ccc(NC(=O)C2CCCN(c3nc(C)cc(C)n3)C2)cc1 (centres unmarked) | 16.5
CCOc1ccc(CNC(=O)Nc2ccccc2)cc1 | 14.3
CCC(C)[C@H](NC(=O)NCc1ccccc1Cl)C(=O)O (some centres unmarked) | 6.22
COC(=O)[C@@H](NC(=O)c1cc(COc2cncc(Cl)c2)on1)c1ccccc1 | 7.99
Cc1ccc(C(=O)OCC(=O)NC(=O)c2ccc(C(C)(C)C)cc2)c(O)c1 | 12.7
O=C(OCc1nnc(-c2ccccc2)o1)c1cc([N+](=O)[O-])ccc1Cl | 8.93
CCOC(=O)N1CCC(NC(=O)CS(=O)(=O)Cc2nc(-c3ccccc3Cl)oc2C)CC1 | 17.3
CC[C@H](C)[C@@H](C(=O)N1CCNCC1)n1cc([C@@H](N)Cc2ccc(O)cc2)nn1.Cl | 25.5
CCC(C)N(C(=O)COc1ccc(-c2nnco2)cc1)C1CCS(=O)(=O)C1 (centres unmarked) | 9.14
COCC(C)NC(=O)c1cc(-c2cccc(OC)c2)on1 (centres unmarked) | 24
